In the supplement of paper PMC3334620:
In all, about 33,000 sequences were measured (“E-score (-0.5 to 0.5)”: median about -0.054, highest 2% from about 0.39 on). Some of the results follow.

Each sequence was assayed against Ylr278c (UniProt Q05854) (assay: PBM E-score (8-mer binding enrichment) (E-score (-0.5 to 0.5)); higher = stronger / more preferred TF binding; most listed sequences are background and not binding sites). Conditions: protein concentration: 200 nM; construct: GST-DNA-binding domain.
Outline: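 E-scores (a modified Wilcoxon-Mann-Whitney statistic) were assigned by the Universal PBM Analysis Suite to every ungapped eight-base word pooled with its reverse complement. The input came from universal all-10-mer Agilent arrays made double-stranded by primer extension and probed with GST-tagged yeast transcription factors at about 100-200 nM. Fluorescent anti-GST detected bound protein, and masliner normalised the scans.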

Sequence | PBM E-score
AGTTATGA | -0.0588
CTTTGTGC | -0.122
TCCACTCA | -0.14
GTGTGCGA | -0.0797
CGGTCGAC | 0.268
GTTGAGGA | -0.116
AAAATAAA | 0.0366
ATTCAAAA | -0.0484
TGATGCCA | -0.207
CGGTTGTA | -0.0449
CGGCGAAC | 0.377
TGAACTCA | -0.232
GCCCTGAA | -0.0286
AATCGCTA | -0.143
CCTAAAGC | -0.195
ACCCAACG | -0.0574
ATCCATAC | -0.145
GGGAGTAC | 0.0396
GGGTAGAA | -0.0907
ATGAAATA | 0.0645
CTTCAACC | -0.0749
GCAGGCCC | -0.145
ATATGGAC | -0.165
CCCATTCC | -0.043
AAACTCCC | 0.322

Sequence | PBM E-score
AAGATTAG | 0.00781
GATGTCCC | 0.245
ATTTTCGA | -0.0717
GCCTTAGC | -0.017
GTGGTCTA | -0.117
AACTAGAA | -0.124
GTCAGGAC | -0.266
CCTAACCC | -0.0948
ACGATGCT | -0.0929
AGCGCCCG | 0.118
ACACCGTC | 0.157
CTAGTAGA | -0.103
CACGGCCC | -0.0124
CTTGGGAA | -0.0652
AATAGAAC | 0.101
CAGTTGAC | 0.0904
CCGCGCCA | 0.182
GCGTTGAA | 0.0119
GTCGATCA | -0.216
GCCCGGTA | 0.26
GGTTTCAA | 0.169
ACTTTCTC | 0.16
CGTAAATA | 0.0844
ATTTTCCG | 0.421
ATTCGTTA | -0.127

Sequence | PBM E-score
AATCTTGA | -0.172
CGGACTGC | 0.318
AATGCATG | -0.0764
ATTGAGCG | 0.0335
GCTGCCCC | -0.0402
AGGCATGG | -0.0498
ACCCATAA | 0.103
CAGTTAAC | 0.135
GCCCCCTA | -0.281
AGATCGAG | -0.0887
CGCCCGCA | 0.221
CACGCTAA | -0.0491
AGTGCCTG | -0.112
AGCATGCC | -0.0212
GGAAGTCA | 0.111
GGGGTCAA | 0.0985
AAACGAGA | 0.0181
AATGCTTA | -0.223
GATCCCCA | 0.0317
CGAATCTA | -0.127
TGGCAGAA | -0.103
CCCTGTTC | -0.195
CAACTGGG | -0.0669
ATCTCGCG | 0.0561
GAGCACAC | -0.212

Sequence | PBM E-score
CTTCCAAG | -0.204
GTTGCATA | -0.161
AGTCTCAG | -0.28
ATCTACTA | -0.00413
AAGCCATG | -0.0953
ATGTTAAC | -0.0506
ACTGTTTA | -0.202
AACATAAG | -0.0375
CACTCAGG | -0.085
AACCCACC | 0.211
GACACCGA | 0.129
AGCAGCTA | -0.241
CCAATCGA | -0.112
GATACTTA | -0.107
GCCTAGGC | -0.133
ACGTCTAG | -0.251
CCTGGCTC | -0.101
AGTGACCG | 0.0485
ACTCACGG | 0.204
ACCGTGGA | 0.147
CAGTAAGA | -0.0767
CCGACGAA | 0.324
AGTGGTGC | -0.0921
AGGTGAGC | -0.0782
ACCCCCTG | -0.225

Sequence | PBM E-score
GCCTGACC | -0.00172
GTCAACCA | -0.208
ATGACGAC | -0.0126
ACTAAACA | -0.00902
CGTCATTA | -0.0302
AACCAACA | -0.129
ATCATCCC | -0.101
CGTTTATC | 0.083
ATAGTGGG | -0.0278
ACCACGCG | 0.061
CGCGTGGA | -0.0162
CGTGGCAG | -0.156
GTTAGGGA | -0.234
CACGTTCG | 0.0568
CTAGGAGA | -0.154
AACCGCGT | 0.0923
ATACAAAC | 0.0395
GTACTTAA | -0.169
CACAGGTC | -0.0954
ATAGGCCG | 0.251
GAATTGGA | -0.146
CGTTGCCC | 0.0478
CCCCTAAG | -0.24
CACGTAGC | -0.143
CATGAACC | 0.0357

Sequence | PBM E-score
TGACTCCA | -0.218
TTAATAAA | 0.00662
GTAATGGA | -0.117
GACCATGC | -0.0555
AAGACTTC | -0.186
ACTCCTGG | -0.0351
CCGATACG | 0.306
CCGTCAGG | 0.103
AGCCTGCC | -0.0346
GGCGCCGA | 0.31
AACGAACA | 0.154
CAACGTCA | -0.062
TCCAAAAA | -0.103
GAGACCGA | 0.141
AGCGAGAA | -0.0276
ACGTATCG | -0.161
TCAACAGA | -0.118
CGCAGTGC | -0.0783
ACGTGCTC | -0.00716
CAGAAGCA | -0.12
ACGGCTCA | -0.0837
ATACTAAC | 0.036
CCCGGGCG | 0.291
ACGTACTG | -0.138
CACGTAGG | -0.272

Sequence | PBM E-score
CGGAATTC | 0.464
ACCGTGCC | -0.0784
CTTATTAC | -0.138
ACCTACTG | -0.152
CTGCGAGA | -0.274
GATCACCC | -0.0849
ACTGCTGG | -0.169
CGTGCACC | -0.0232
ACAATTCA | -0.116
TCCTGTAA | -0.118
ACACCTGC | -0.14
ATGTATTC | 0.163
CTCGGCCA | 0.136
ACGAGTAA | 0.0026
GCTCAGTA | -0.159
ATACAGCG | -0.0771
CTTATAAC | -0.0795
AAAGTTTG | 0.00691
CTACCCAC | -0.211
TATCATGA | -0.292
GACCCGAC | 0.229
ACCTTATA | -0.0665
CCAAACGG | 0.0912
ACCTAGAA | -0.19
ATTTATAC | 0.134

Sequence | PBM E-score
AATTGGCC | -0.118
GCCTTCCA | -0.181
CGCAGGTA | 0.102
AGCCGGAC | 0.407
GGGGAGAA | 0.0935
CGCCCCCC | -0.0927
CGTTACTC | -0.0712
CCGGTTAA | 0.384
GTAAAGTA | -0.0346
CAAGTGTC | -0.236
AACCAGAG | -0.201
CCAATGTA | -0.0158
GCACGACC | -0.166
ATTCCCTC | -0.0673
AAGCGGGT | 0.0864
CCTTAAGA | -0.303
GAACAGAA | -0.0459
ATATAGAG | -0.169
ACCTCCTA | -0.101
CAGAATCG | 0.00258
AGTTGGAT | -0.0664
CGACATAC | 0.0107
GCAGGATA | -0.221
AGTTACAC | -0.0994
GACGGCAC | 0.0236

Sequence | PBM E-score
ACACCGTG | 0.143
AATGGCGA | 0.125
CCGGTTGC | 0.316
GTGCTTTA | -0.09
CACACATG | -0.266
GAGAGCGA | -0.0697
CCTTTGCC | -0.143
AATTCGTA | -0.0871
GGTGTGAA | 0.0191
CGTTGCAG | -0.138
ACATTAGA | -0.114
CCTAATAG | -0.119
GGCTTGAA | -0.135
CCAACCCG | 0.0992
CCTAGCTC | 0.108
TAATCGAA | -0.0147
GGTTTTAA | 0.204
AGACCCTG | -0.235
AACATGCA | -0.227
CCACTGCA | -0.243
CAAGATGG | -0.151
CAAATTGG | -0.00322
AAATGGGA | -0.167
GCGAAAAA | 0.135
AGACGGCC | 0.0197

Sequence | PBM E-score
CACTTTGG | -0.0526
TCGATAAA | 0.0129
CATCTAAG | -0.126
AGACCTAC | -0.142
AGGGGTTA | -0.171
GCCTTCAC | 0.00501
ATAGGCAT | -0.072
CTGTCAAA | -0.221
GTCACACA | -0.101
ACTACTAT | 0.0743
GATGGCGC | -0.0855
CGTGGATC | -0.133
ACGTAAGA | -0.268
TAATTCAA | -0.0538
GACTCGAA | -0.0224
GCGAGTCC | 0.102
CTGTCGCC | 0.0179
ATCGGGCC | 0.13
GAGCTCTA | 0.0169
CGCCTGGA | -0.098
AATCAACA | 0.0594
CTTGAGCC | -0.148
ATCAACAC | -0.103
CTTCATAC | -0.0193
ACATCTAG | -0.14

Sequence | PBM E-score
TCTAGACA | -0.2
CCGTGCGA | 0.183
CTGAAAGA | -0.124
AGTGGAAA | -0.0355
AAGCAGAC | -0.241
GGCAATAC | 0.173
CGAGACCG | 0.233
GCCTTCGA | -0.18
ACCATGGC | -0.153
AAAAGATA | -0.0427
CCATCCCG | 0.129
CTTATCCA | -0.0762
AACTCCTG | 0.152
TATCTCAA | -0.113
AACCGATA | 0.0662
GATTTGCA | 0.0968
AGTTAGGC | -0.0659
AACGTCAT | -0.0958
AGCATCAA | -0.161
ACGTCCGG | 0.373
GGGCTTTA | 0.034
CACTTGTC | -0.0561
ACGCTGAA | -0.0706
GTCCAACA | -0.156
CTTATGGC | -0.216

Sequence | PBM E-score
AAGACCGT | 0.152
CTAGCCGA | 0.0987
TAACTCCA | -0.0465
GCGCCTCC | 0.238
AGTCCCGA | 0.207
CTCGCTGC | -0.0912
ATGGGATG | 0.0381
ACCTAAGG | -0.254
ATTTTCGC | 0.0951
CTGGCACA | -0.391
CAAATGAC | -0.152
AATAGCAC | -0.015
GCGTAGTA | -0.122
AACTCAAC | 0.00243
GCCAGGCC | 0.0863
GTCATCAA | -0.089
AAGCGAGA | -0.00596
ACCTCGGA | 0.387
GCGGCACA | 0.116
GACCCGGC | 0.184
CACGTTGA | -0.163
GGTTCGGA | 0.42
AGCAAACG | 0.00825
ATGAGCGA | -0.117
ATTTAACC | 0.135

Sequence | PBM E-score
GTTTAGCA | -0.0611
TCTACAGA | -0.0519
AGATGCGA | 0.0808
CTCCGGGA | 0.468
CCAAGAGA | -0.167
CATCTGCG | 0.0829
AGTTGAAA | 0.114
CGTTTTGA | -0.142
CCGACAAG | 0.281
CCCTCTCC | -0.0108
ATATGTGA | -0.262
CCAGTGGA | -0.145
CTTCACAC | -0.0372
AGGTTCAA | -0.118
ATAGTAGG | -0.00095
TACCTAAA | -0.0405
GGGCGGAC | 0.399
CTGTGCGC | 0.145
GTTGAAAC | 0.0735
TGGCACAA | -0.204
ATAACTGA | -0.0171
GAGTAATA | 0.139
ACATTACT | -0.177
AGACTCTC | -0.141
CCATTAAC | -0.113

Sequence | PBM E-score
TCGTGGAA | 0.0808
AAGAAGCC | 0.278
CGAGATTA | 0.168
AGTGGGAT | -0.00431
CCTTCCCA | -0.0384
AAGACCCA | -0.147
CTAATACA | -0.0858
AAATAACA | -0.043
GCACACGC | -0.0949
CCAGAAGC | -0.0506
TAATCTAA | -0.0712
GATACGGC | 0.0373
GCCAAGCA | -0.195
ATAGCCCC | -0.129
CCATCAAA | -0.101
CAGATCAA | -0.169
GTATCATA | -0.0131
ACGTCAGA | -0.338
CGGTGAAG | 0.0946
